# Screen size: about 340,000 compounds; about 12,000 (3.5%) were called active. Inconclusive results, whose numbers are uncertain, are shown with a selection of clear calls. Calls follow the shape of the dose curve; as a rule, active = well fitted inhibition curve with a large enough effect; inconclusive = small, poorly fitted or top-dose-only effect, or another doubt; inactive = no such curve, though single readings can be large or run the other way. Potencies of inconclusive entries are left out as doubtful fits.
# Experiment: qHTS Assay for Inhibitors of Hepatitis C Virus (HCV)
# Conditions: Huh7.5.1 HCVcc-Cre (HCVcc is cell-culture hepatitis C virus) infection, luciferase reporter, 44 h; series mostly up to 41.8 µM
# Method in brief: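 Infectious HCV cell culture screen: compound-treated cells (1,000/well, pre-plated 4 h) are infected with HCVcc-Cre at roughly 0.5 moi and grown 44 h. Infection is quantified by luciferase signal after 15 min substrate incubation at room temperature.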
# Potency is read from the fitted curve at half-maximal effect; tags tell the direction and shape of the fitted curve.
row,Compound,Potency
1,CC(C)(C)c1ccc(CN(Cc2ccccc2)C(c2ccccn2)c2nnnn2C(C)(C)C)cc1 (centres undefined),active: 10 µM
2,Cc1cc(Br)ccc1OCCCCNC(C)(C)C,active: 12.6 µM
3,N/C(Cc1ccc([N+](=O)[O-])cc1)=N\OC(=O)c1ccc2ccccc2c1,"inconclusive [inhibitor, single point]"
4,O=C(CCN1C(=O)/C(=C\c2ccccc2)SC1=S)NNC(=O)c1cccnc1,inactive
5,O=C(Nc1ccccc1F)c1coc(=O)c(Br)c1,inactive
6,O=C(c1ccc(N2CCCCS2(=O)=O)cc1)N1CCN(c2ccccc2F)CC1,"inconclusive [inhibitor, partial curve]"
7,O=C(NN1C(=O)C2C3c4ccccc4C(c4ccccc43)C2C1=O)C1CC1 (centres undefined),inactive
8,COc1ccc(C(=O)CSc2nnc(CNc3ccc(C)cc3C)n2Cc2ccco2)cc1,active: 6.31 µM
9,CC(=O)C(=Cc1ccc(C(=O)O)cc1)C(C)=O,inactive
10,Cc1cc(C)n(CC(=O)n2c(C)c(C)c3ccccc32)n1,"inconclusive [inhibitor, single point]"
11,Cc1ccc(/C=N\NC(=O)COc2ccc(C)cc2[N+](=O)[O-])cc1,inactive
12,Cc1ccccc1C(=O)Nc1c(C(=O)N(CCN(C)C)Cc2ccco2)oc2ccccc12,"inconclusive [inhibitor, partial curve]"
13,COC(=O)c1ccc(NC(=O)c2cn(-c3cccc(C)n3)cn2)cc1,inactive
14,O=C(Cc1ccccc1[N+](=O)[O-])NC1CC2CCC1C2 (centres undefined),"inconclusive [inhibitor, single point]"
15,O=S(=O)(Nc1cc(Sc2ncn[nH]2)c(O)c2ccccc12)c1ccccc1,"inconclusive [inhibitor, single point]"
16,C=CCn1c2[n+](c3ccccc3c1=O)CCCCC2,inactive
17,COC(=O)c1cn(CCOc2ccccc2)c2ccccc12,active: 12.6 µM
18,Nc1nc(SCC(=O)c2ccc(F)cc2)n[nH]1,inactive
19,O=C(NCc1ccco1)C1CC(c2c(Cl)cccc2Cl)=NO1 (centres undefined),"inconclusive [inhibitor, single point]"
20,Cc1ccc(C)c(N2CCN(C(=O)c3ccc4nc(-c5ccco5)c(-c5ccco5)nc4c3)CC2)c1,"inconclusive [inhibitor, single point]"
21,Oc1ccc(Cl)cc1C(C#Cc1ccccc1)N1CCOCC1 (centres undefined),inactive
22,Cc1cccc(OCCCC(=O)Nc2ccc(N3CCCCC3)cc2)c1,inactive
23,O=C(Cc1ccccc1)N/N=C/c1cccn1-c1ccc([N+](=O)[O-])cc1,"inconclusive [inhibitor, partial curve]"
24,C=CC[C@@H](CC(=O)N[C@H](CO)Cc1ccccc1)C(=O)N[C@H](COC(=O)[C@@H](CC=C)Cc1ccc(F)cc1)Cc1c[nH]c2ccccc12,"inconclusive [inhibitor, partial curve]"
25,Cc1ccc(-c2nc3ncccn3c2NC2CCCC2)o1,"inconclusive [inhibitor, single point]"

row,Compound,Potency
1,COc1cc(OC)cc(C(=O)NCCSC2CCCCC2)c1,active: 3.16 µM
2,CN(C)c1ccc(CNc2ccc3c(c2)ncn3C(C)(C)C)cc1,"inconclusive [inhibitor, single point]"
3,Cc1ccc(Cn2nnnc2CN2CCC(c3nc4ccc(Cl)cc4[nH]3)CC2)cc1,"inconclusive [inhibitor, single point]"
4,Cc1ccc(S(=O)(=O)N2CCOCC2)cc1NC(=O)CNC(C)c1ccccc1 (centres undefined),inactive
5,O=C(O)C1OCC2(CO1)COC(C(=O)O)OC2 (centres undefined),inactive
6,CSc1ccccc1OCc1cc(C(=O)NCc2cccc(C)n2)no1,"inconclusive [inhibitor, single point]"
7,O=C(Nc1ccc2c(c1)C(=O)N(CC1CCCO1)C2=O)c1cccc(Br)c1 (centres undefined),"inconclusive [inhibitor, full curve]"
8,COc1ccccc1NS(=O)(=O)c1cccc(NC(=O)C2CC(=O)N(Cc3ccccc3)C2)c1 (centres undefined),active: 14.1 µM
9,COc1ccccc1NC(=S)Nc1ccccn1,"inconclusive [inhibitor, single point]"
10,CCn1c(SCC(=O)Nc2nc(C)c(C)s2)nc2cccnc21,"inconclusive [inhibitor, single point]"
11,Cc1cccc(Nc2nc(C)nc3c2oc2ccccc23)c1,active: 12.6 µM
12,O=C(N/N=C/c1ccc(-c2cccc([N+](=O)[O-])c2)o1)c1cccs1,"inconclusive [inhibitor, partial curve]"
13,COc1cccc(/C=N/Nc2ccc([N+](=O)[O-])cc2)c1O,"inconclusive [inhibitor, single point]"
14,O=C(/C=C/c1ccc2ccccc2n1)N1CCN(S(=O)(=O)c2ccccc2F)CC1,"inconclusive [inhibitor, single point]"
15,C(=N\Nc1ncnc2sc3c(c12)CCC3)/c1ccncc1,"inconclusive [inhibitor, single point]"
16,O=C(N/N=C/C=C/c1ccccc1)C1CC1(c1ccccc1)c1ccccc1 (centres undefined),"inconclusive [inhibitor, single point]"
17,COC(=O)Cn1c(C)nc2c(sc3nc(C)cc(C)c32)c1=O,inactive
18,CS(=O)(=O)N(CC(=O)Nc1ccccc1C(=O)NCc1ccco1)c1ccccc1F,inactive
19,Cc1ccc(NC(=O)c2c(O)c3ccccc3n(C)c2=O)nc1,"inconclusive [inhibitor, single point]"
20,Cc1ccc(-n2cc(CN3CCN(Cc4nccn4C)CC3)c(-c3cccc(C)c3)n2)cc1,"inconclusive [inhibitor, partial curve]"
21,O=C(Nc1ccccc1)c1cn(CCBr)cn1,inactive
22,CC(C)c1ccc(N2C(=O)NC(=O)/C(=C/C=C/c3ccco3)C2=O)cc1,"inconclusive [inhibitor, single point]"
23,CCC(=O)N(CCC(c1ccco1)c1ccccc1OC)Cc1cccs1 (centres undefined),"inconclusive [inhibitor, single point]"
24,O=C1CCCCC1(CCc1ccncc1)CCc1ccncc1,"inconclusive [inhibitor, partial curve, poor fit]"
25,Cc1ccccc1C(OCC(O)CN1CCN(CCO)CC1)c1ccccc1 (centres undefined),inactive

row,Compound,Potency
1,COc1cc(NC(=S)Nc2ccccn2)cc(OC)c1,"inconclusive [inhibitor, single point]"
2,O=C(/C(N=Nc1cccc(C(F)(F)F)c1)=C(/O)c1cccs1)C(F)(F)F,"inconclusive [inhibitor, single point]"
3,C/C(=N\NC(=O)c1ccco1)c1cc(Cl)sc1Cl,"inconclusive [inhibitor, single point]"
4,CCOc1ccc(-n2c(SCc3ccc(C(=O)OC)o3)nc3c(c2=O)SCC3)cc1,"inconclusive [inhibitor, single point]"
5,Cc1cc(-c2csc(N)n2)c(C)n1-c1ccc(Cl)c(Cl)c1,"inconclusive [inhibitor, single point]"
6,COC(=O)C1C(=O)c2c([nH]c(C(=O)OC3CCCC3)c2C)CC1C (centres undefined),"inconclusive [inhibitor, single point]"
7,CCc1cccc(CC)c1NC(=O)COC(=O)C1(c2ccc(Cl)cc2)CCCC1,inactive
8,CC(Sc1nnc(-c2ccccc2)c(-c2ccccc2)n1)C(=O)Nc1ncc(Cl)cc1Cl (centres undefined),"inconclusive [inhibitor, single point]"
9,C=CCNC(=O)c1ccc2c3n(nc2c1)-c1ccccc1CO3,"inconclusive [inhibitor, partial curve]"
10,COc1ccc(N2C(=O)/C(=C\c3ccco3)N=C2SCC(=O)NC(C)(C)C)cc1Cl,"inconclusive [inhibitor, full curve, poor fit]"
11,Nc1nc(N)c(N=Nc2ccc(Cl)cc2)c(=O)[nH]1,active: 5.62 µM
12,O=C(Cc1c[nH]c2ccccc12)OCC(=O)c1ccccc1,"inconclusive [inhibitor, single point]"
13,COc1cc(Cl)c(C)cc1NC(=O)Cc1cccs1,active: 3.55 µM
14,O=C(NC(N1CCCCCC1)C(Cl)(Cl)Cl)c1ccccc1Cl (centres undefined),inactive
15,COC(=O)c1ccc(NC(C)C(=O)OC)c([N+](=O)[O-])c1 (centres undefined),inactive
16,COc1cccc(-c2csc(N3CCN(C(=O)Nc4ccc(Cl)cc4)CC3)n2)c1,active: 11.2 µM
17,CC(=O)Oc1ccc2ccccc2c1C(NC(=O)Cc1ccccc1)c1ccc(Cl)cc1 (centres undefined),active: 10 µM
18,O=C(Cn1c(=O)oc2ccccc21)N1CCN(c2ccccc2)CC1,inactive
19,COc1ccc(-c2cc(N)n(S(=O)(=O)c3ccc(C)cc3)n2)c(OC)c1,"inconclusive [inhibitor, partial curve]"
20,Cc1cc(C)cc(OCC(=O)Nc2ccncc2)c1,"inconclusive [inhibitor, partial curve]"
21,Cc1ccc(N2CCN(/N=C/c3ccccc3[N+](=O)[O-])CC2)cc1,inactive
22,Cc1cc(N2CCOCC2)nc2ccc(NC(=S)N3CCN(c4ccccc4)CC3)cc12,"inconclusive [inhibitor, full curve, poor fit]"
23,CCCn1c(C(O)c2ccc(OC)c(OC)c2)nc2ccccc21 (centres undefined),"inconclusive [inhibitor, single point]"
24,CCOC(=O)N/N=C\c1ccc(-c2cccc(C(F)(F)F)c2)o1,"inconclusive [inhibitor, partial curve]"
